Data reported in the supplement of paper PMC8728848.
Some of the results follow.

What was measured:
Assay in all cases: glycan array binding signal (z-score within array); higher = stronger binding
Conditions in all cases: glycan notation: IUPAC condensed, linker removed
[1] = molecular target: Neu5Ac(a2-3)Gal(b1-4)GlcNAc(b1-6)GalNAc
In short: (§1)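 Glycan array binding is given as a within-array Z-score, which can be read as non-binding when negative. The arrays, 3228 of them, came from the Consortium for Functional Glycomics database and were retained only where the protein sequence was available. Z-scores were averaged across arrays of the same protein sequence at different concentrations or buffers and across linkers.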

[2] = molecular target: Neu5Ac(a2-3)Gal(b1-4)GlcNAc(b1-6)[Gal(b1-3)]GalNAc
In short: as §1

[3] = molecular target: Neu5Ac(a2-3)Gal(b1-4)GlcNAc(b1-6)[Neu5Ac(a2-3)Gal(b1-3)]GalNAc
In short: as §1

[4] = molecular target: Neu5Ac(a2-3)Gal(b1-4)GlcNAc6S
In short: as §1

[5] = molecular target: Neu5Ac(a2-3)Gal(b1-4)[Fuc(a1-3)]GlcNAc
In short: as §1

[6] = molecular target: Neu5Ac(a2-3)Gal(b1-4)[Fuc(a1-3)]GlcNAc(b1-2)Man
In short: as §1

[7] = molecular target: Neu5Ac(a2-3)Gal(b1-4)[Fuc(a1-3)]GlcNAc(b1-3)Gal
In short: as §1

[8] = molecular target: Neu5Ac(a2-3)Gal(b1-4)[Fuc(a1-3)]GlcNAc(b1-3)Gal(b1-4)GlcNAc
In short: as §1

[9] = molecular target: Neu5Ac(a2-3)Gal(b1-4)[Fuc(a1-3)]GlcNAc(b1-3)Gal(b1-4)[Fuc(a1-3)]GlcNAc(b1-3)Gal(b1-4)[Fuc(a1-3)]GlcNAc
In short: as §1

[10] = molecular target: Neu5Ac(a2-3)Gal(b1-4)[Fuc(a1-3)]GlcNAc(b1-3)GalNAc
In short: as §1

[11] = molecular target: Neu5Ac(a2-3)Gal(b1-4)[Fuc(a1-3)]GlcNAc(b1-6)[Gal(b1-3)]GalNAc
In short: as §1

[12] = molecular target: Neu5Ac(a2-3)Gal(b1-4)[Fuc(a1-3)]GlcNAc(b1-6)[Neu5Ac(a2-3)Gal(b1-3)]GalNAc
In short: as §1

[13] = molecular target: Neu5Ac(a2-3)Gal(b1-4)[Fuc(a1-3)]GlcNAc6S
In short: as §1

[14] = molecular target: Neu5Ac(a2-3)Gal6S(b1-4)GlcNAc
In short: as §1

[15] = molecular target: Neu5Ac(a2-3)Gal6S(b1-4)[Fuc(a1-3)]GlcNAc
In short: as §1

Neu5Ac(a2-3)GalNAc = molecular target: Neu5Ac(a2-3)GalNAc
In short: as §1

[16] = molecular target: Neu5Ac(a2-3)GalNAc(b1-4)GlcNAc
In short: as §1

[17] = molecular target: Neu5Ac(a2-3)[GalNAc(b1-4)]Gal(b1-4)Glc
In short: as §1

[18] = molecular target: Neu5Ac(a2-3)[GalNAc(b1-4)]Gal(b1-4)GlcNAc
In short: as §1

[19] = molecular target: Neu5Ac(a2-3)[GalNAc(b1-4)]Gal(b1-4)GlcNAc(b1-3)GalNAc
In short: as §1

[20] = molecular target: Neu5Ac(a2-3)[Neu5Ac(a2-6)]GalNAc
In short: as §1

Neu5Ac(a2-6)Gal = molecular target: Neu5Ac(a2-6)Gal
In short: as §1

[21] = molecular target: Neu5Ac(a2-6)Gal(b1-3)GlcNAc(b1-3)[Gal(b1-4)GlcNAc(b1-6)]Gal(b1-4)Glc
In short: as §1

Neu5Ac(a2-6)Gal(b1-4)Glc = molecular target: Neu5Ac(a2-6)Gal(b1-4)Glc
In short: as §1

[22] = molecular target: Neu5Ac(a2-6)Gal(b1-4)GlcNAc
In short: as §1

[23] = molecular target: Neu5Ac(a2-6)Gal(b1-4)GlcNAc(b1-2)Man
In short: as §1

[24] = molecular target: Neu5Ac(a2-6)Gal(b1-4)GlcNAc(b1-2)Man(a1-3)Man(b1-4)GlcNAc(b1-4)GlcNAc
In short: as §1

[25] = molecular target: Neu5Ac(a2-6)Gal(b1-4)GlcNAc(b1-2)Man(a1-3)[Gal(b1-4)GlcNAc(b1-2)Man(a1-6)]Man(b1-4)GlcNAc(b1-4)GlcNAc
In short: as §1

[26] = molecular target: Neu5Ac(a2-6)Gal(b1-4)GlcNAc(b1-2)Man(a1-3)[GlcNAc(b1-4)][Neu5Ac(a2-6)Gal(b1-4)GlcNAc(b1-2)Man(a1-6)]Man(b1-4)GlcNAc(b1-4)GlcNAc
In short: as §1

[27] = molecular target: Neu5Ac(a2-6)Gal(b1-4)GlcNAc(b1-2)Man(a1-3)[Man(a1-6)]Man(b1-4)GlcNAc(b1-4)GlcNAc
In short: as §1

B1: CBM40 CPF071 (Clostridium perfringens) (protein)
chain: MAHHHHHHVGTGSNDDDDKSPDPMLSSLGEYKDINLESSNASNITYDLEKYKNLDEGTIVVRFNSKDSKIQSLLGISNSKTKNGYFNFYVTNSRVGFELRNQKNEGNTQNGTENLVHMYKDVALNDGDNTVALKIEKNKGYKLFLNGKMIKEVKDTNTKFLNNIENLDSAFIGKTNRYGQSNEYNFKGNIGFMNIYNEPLGDDYLLSKTGETK
[1]
  glycan array binding signal (z-score): -0.131
[2]
  glycan array binding signal (z-score): 0.911
[3]
  glycan array binding signal (z-score): 0.122
[4]
  glycan array binding signal (z-score): 5.07
[5]
  glycan array binding signal (z-score): 0.895
[6]
  glycan array binding signal (z-score): -0.072
[7]
  glycan array binding signal (z-score): 1.97
[8]
  glycan array binding signal (z-score): 0.818
[9]
  glycan array binding signal (z-score): 0.223
[10]
  glycan array binding signal (z-score): 0.146
[11]
  glycan array binding signal (z-score): -0.129
[12]
  glycan array binding signal (z-score): 0.036
[13]
  glycan array binding signal (z-score): 1.96
[14]
  glycan array binding signal (z-score): 16.3
[15]
  glycan array binding signal (z-score): 5.09
Neu5Ac(a2-3)GalNAc
  glycan array binding signal (z-score): 0.204
[16]
  glycan array binding signal (z-score): 0.216
[17]
  glycan array binding signal (z-score): -0.374
[18]
  glycan array binding signal (z-score): 0.195
[19]
  glycan array binding signal (z-score): -0.525
[20]
  glycan array binding signal (z-score): -0.542
Neu5Ac(a2-6)Gal
  glycan array binding signal (z-score): -0.173
[21]
  glycan array binding signal (z-score): -0.477
Neu5Ac(a2-6)Gal(b1-4)Glc
  glycan array binding signal (z-score): 0.107
[22]
  glycan array binding signal (z-score): 0.039
[23]
  glycan array binding signal (z-score): -0.5
[24]
  glycan array binding signal (z-score): -0.159
[25]
  glycan array binding signal (z-score): 0.415
[26]
  glycan array binding signal (z-score): -0.407
[27]
  glycan array binding signal (z-score): -0.544
